MIC of clinical C. albicans isolates, CLSI broth microdilution (ranges and time not stated); higher = less susceptible. Call: susceptible or wild type [S] / resistant or non-wild type [R] by CLSI breakpoints or epidemiological cut-offs; intermediate and dose-dependent carry no call here (the paper groups them with resistant). '<=' and '>=' mark each drug's lowest and highest value, inferred; the source prints them plain. Isolates are numbered anew.
Assays:
Test in all cases: CLSI broth microdilution.
posaconazole = compound: CC[C@@H]([C@H](C)O)n1ncn(-c2ccc(N3CCN(c4ccc(OC[C@@H]5CO[C@@](Cn6cncn6)(c6ccc(F)cc6F)C5)cc4)CC3)cc2)c1=O [posaconazole]
micafungin = compound: CCCCCOc1ccc(-c2cc(-c3ccc(C(=O)N[C@H]4C[C@@H](O)[C@@H](O)NC(=O)[C@@H]5[C@@H](O)[C@@H](C)CN5C(=O)[C@H]([C@H](O)CC(N)=O)NC(=O)[C@H]([C@H](O)[C@@H](O)c5ccc(O)c(OS(=O)(=O)O)c5)NC(=O)[C@@H]5C[C@@H](O)CN5C(=O)[C@H]([C@@H](C)O)NC4=O)cc3)no2)cc1 [micafungin]
caspofungin = compound: CC[C@H](C)C[C@H](C)CCCCCCCCC(=O)N[C@H]1C[C@@H](O)[C@@H](NCCN)NC(=O)[C@@H]2[C@@H](O)CCN2C(=O)[C@H]([C@H](O)CCN)NC(=O)[C@H]([C@H](O)[C@@H](O)c2ccc(O)cc2)NC(=O)[C@@H]2C[C@@H](O)CN2C(=O)[C@H]([C@@H](C)O)NC1=O [caspofungin]
anidulafungin = compound: CCCCCOc1ccc(-c2ccc(-c3ccc(C(=O)N[C@H]4C[C@@H](O)[C@@H](O)NC(=O)[C@@H]5[C@@H](O)[C@@H](C)CN5C(=O)[C@H]([C@@H](C)O)NC(=O)[C@H]([C@H](O)[C@@H](O)c5ccc(O)cc5)NC(=O)[C@@H]5C[C@@H](O)CN5C(=O)[C@H]([C@@H](C)O)NC4=O)cc3)cc2)cc1 [anidulafungin]
voriconazole = compound: C[C@@H](c1ncncc1F)[C@](O)(Cn1cncn1)c1ccc(F)cc1F [voriconazole]
itraconazole = compound: CCC(C)n1ncn(-c2ccc(N3CCN(c4ccc(OCC5COC(Cn6cncn6)(c6ccc(Cl)cc6Cl)O5)cc4)CC3)cc2)c1=O [itraconazole]
flucytosine = compound: Nc1[nH]c(=O)ncc1F [flucytosine]
amphotericin B = compound: C[C@@H]1[C@H](O)[C@@H](C)/C=C/C=C/C=C/C=C/C=C/C=C/C=C/[C@H](O[C@@H]2O[C@H](C)[C@@H](O)[C@H](N)[C@@H]2O)C[C@@H]2O[C@](O)(C[C@@H](O)C[C@@H](O)[C@H](O)CC[C@@H](O)C[C@@H](O)CC(=O)O[C@H]1C)C[C@H](O)[C@H]2C(=O)O [amphotericin B]
fluconazole = compound: OC(Cn1cncn1)(Cn1cncn1)c1ccc(F)cc1F [fluconazole]

Row | Test System | MIC (posaconazole) | MIC (micafungin) | MIC (caspofungin) | MIC (anidulafungin) | MIC (voriconazole) | MIC (itraconazole) | MIC (flucytosine) | MIC (amphotericin B) | MIC (fluconazole)
1 | Candida albicans isolate 68 (Erg11p: V488I,L276S,E266D, Fur1p: WT, Tac1p: N896S,I895T) | 0.03 mg/L [S] | 0.015 mg/L [S] | 0.03 mg/L [S] | 0.03 mg/L [S] | 0.015 mg/L [S] | 0.06 mg/L [S] | ≤ 0.06 mg/L [S] | 0.25 mg/L [S] | 1 mg/L [S]
2 | Candida albicans isolate 356 (Erg11p: D153E, Fur1p: WT, Tac1p: N896S) | 0.015 mg/L [S] | 0.015 mg/L [S] | 0.03 mg/L [S] | 0.03 mg/L [S] | ≤ 0.008 mg/L [S] | 0.03 mg/L [S] | ≤ 0.06 mg/L [S] | 0.25 mg/L [S] | 0.25 mg/L [S]
3 | Candida albicans isolate 248 (Erg11p: V488I,L276S,E266D, Fur1p: WT, Tac1p: N896S,I895T) | 0.03 mg/L [S] | 0.015 mg/L [S] | 0.03 mg/L [S] | 0.03 mg/L [S] | ≤ 0.008 mg/L [S] | 0.06 mg/L [S] | ≤ 0.06 mg/L [S] | 0.5 mg/L [S] | 0.5 mg/L [S]
4 | Candida albicans isolate 278 (Erg11p: V488I,E266D, Fur1p: WT, Tac1p: N896S,I895T) | 0.03 mg/L [S] | ≤ 0.008 mg/L [S] | 0.06 mg/L [S] | 0.12 mg/L [S] | 0.015 mg/L [S] | 0.06 mg/L [S] | ≤ 0.06 mg/L [S] | 0.5 mg/L [S] | 0.5 mg/L [S]
5 | Candida albicans isolate 148 (Erg11p: Y132H,T123I, Fur1p: R101C, Tac1p: E461K) | 0.12 mg/L [R] | 0.015 mg/L [S] | 0.015 mg/L [S] | ≤ 0.015 mg/L [S] | 1 mg/L [R] | 0.25 mg/L [R] | 0.12 mg/L [S] | 0.25 mg/L [S] | 32 mg/L [R]
6 | Candida albicans isolate 102 (Erg11p: E266D, Fur1p: WT, Tac1p: N896S) | 0.015 mg/L [S] | ≤ 0.008 mg/L [S] | 0.03 mg/L [S] | 0.03 mg/L [S] | ≤ 0.008 mg/L [S] | ≤ 0.015 mg/L [S] | ≤ 0.06 mg/L [S] | 0.25 mg/L [S] | 0.5 mg/L [S]
7 | Candida albicans isolate 151 (Erg11p: G465S,Y132H, Fur1p: R101C, Tac1p: WT) | 0.03 mg/L [S] | 0.03 mg/L [S] | 0.03 mg/L [S] | ≤ 0.015 mg/L [S] | ≤ 0.008 mg/L [S] | 0.03 mg/L [S] | ≤ 0.06 mg/L [S] | 0.5 mg/L [S] | 0.5 mg/L [S]
8 | Candida albicans isolate 206 (Erg11p: E266D,G129A, Fur1p: WT, Tac1p: R869Q,L695F,I558V,A377V,F189S,M170V,L131I) | 0.03 mg/L [S] | 0.015 mg/L [S] | 0.06 mg/L [S] | 0.03 mg/L [S] | 0.015 mg/L [S] | 0.06 mg/L [S] | ≤ 0.06 mg/L [S] | 0.5 mg/L [S] | 0.5 mg/L [S]

From the supplement of paper PMC9927326
